This passage reports enrichment results from the supplement of paper PMC12230231.

± gives the standard deviation of the averaged measurements. Restriction of a single-cycle SIVsab GFP reporter by TRIM5α v1-loop variants in CRFK cells. Human variants: read share among cells still uninfected after two challenges over input, higher = gained restriction. Rhesus variants: share among infected cells over input, higher = lost restriction. Reporter dose not given per row. No active / inactive call per row; the paper calls a change when both replicates lie above its controls (mean + 2 SD of stop or wild-type variants, or the top frameshift score). Residues outside the varied loop are taken from Swiss-Prot. The paper reads the human single-substitution scores as noise; they and the rhesus combinations repeat poorly (rank correlation 0.3 to 0.4), indel scores repeat only for the top variants, rhesus substitutions well (0.9).

The data set concerns SIVsab (simian immunodeficiency virus of sabaeus monkeys), single-cycle GFP reporter, in CRFK cells. Briefly: enrichment among uninfected cells over input (fold); higher = stronger restriction. The conditions noted are these: library: insertions and deletions. The procedure:
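Pools of CRFK cells expressing variants of the TRIM5α v1 loop were challenged with the single-cycle reporter, sorted by GFP and sequenced; mean of two replicates.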
The sequence “MASGILVNVKEEVTCPICLELLTQPLSLDCGHSFCQACLTANHKKSMLDKGESSCPVCRISYQPENIRPNRHVANIVEKLREVKLSPEGQKVDHCARHGEKLLLFCQEDGKVICWLCERSQEHRGHHTFLTEEVAREYQVKLQAALEMLRQKQQEAEELEADIREEKASWKTQIQYDKTNVLADFEQLRDILDWEESNELQNLEKEEEDILKSLTNSETEMVQQTQSLRELISDLEHRLQGSVMELLQGVDGVIKRTENVTLKKPETFPKNQRRVFRAPDLKGMLEVFRELTDVRRYWVDVTVAPNNISCAVISEDKRQVSSPKPQIIYGARGTRYQTFVNRYQTFVNFNYCTGILGSQSITSGKHYWEVDVSKKTAWILGVCAGFQPDAMCNIEKNENYQPKYGYWVIGLEEGVKCSAFQDSSFHTPSVPFIVPLSVIICPDRVGVFLDYEACTVSFFNITNHGFLIYKFSHCSFSQPVFPYLNPRKCGVPMTLCSPSS [human TRIM5α, 7-codon duplication at 335]” showed an enrichment of 0.36 ± 0.3.
The result for “MASGILVNVKEEVTCPICLELLTQPLSLDCGHSFCQACLTANHKKSMLDKGESSCPVCRISYQPENIRPNRHVANIVEKLREVKLSPEGQKVDHCARHGEKLLLFCQEDGKVICWLCERSQEHRGHHTFLTEEVAREYQVKLQAALEMLRQKQQEAEELEADIREEKASWKTQIQYDKTNVLADFEQLRDILDWEESNELQNLEKEEEDILKSLTNSETEMVQQTQSLRELISDLEHRLQGSVMELLQGVDGVIKRTENVTLKKPETFPKNQRRVFRAPDLKGMLEVFRELTDVRRYWVDVTVAPNNISCAVISEDKRQVSSPKPQIIYGARGTRYQTFVNSQSITSGKHYWEVDVSKKTAWILGVCAGFQPDAMCNIEKNENYQPKYGYWVIGLEEGVKCSAFQDSSFHTPSVPFIVPLSVIICPDRVGVFLDYEACTVSFFNITNHGFLIYKFSHCSFSQPVFPYLNPRKCGVPMTLCSPSS [human TRIM5α, 9-codon deletion at 342]” reads 6.88 ± 8.8; that for “MASGILVNVKEEVTCPICLELLTQPLSLDCGHSFCQACLTANHKKSMLDKGESSCPVCRISYQPENIRPNRHVANIVEKLREVKLSPEGQKVDHCARHGEKLLLFCQEDGKVICWLCERSQEHRGHHTFLTEEVAREYQVKLQAALEMLRQKQQEAEELEADIREEKASWKTQIQYDKTNVLADFEQLRDILDWEESNELQNLEKEEEDILKSLTNSETEMVQQTQSLRELISDLEHRLQGSVMELLQGVDGVIKRTENVTLKKPETFPKNQRRVFRAPDLKGMLEVFRELTDVRRYWVDVTVAPNNISCAVISEDKRQVSSPKPQIIYGARGTRYQTFVNTFVNFNYCTGILGSQSITSGKHYWEVDVSKKTAWILGVCAGFQPDAMCNIEKNENYQPKYGYWVIGLEEGVKCSAFQDSSFHTPSVPFIVPLSVIICPDRVGVFLDYEACTVSFFNITNHGFLIYKFSHCSFSQPVFPYLNPRKCGVPMTLCSPSS [human TRIM5α, 4-codon duplication at 338]”, 0.0834 ± 0.017.
The figure for “MASGILVNVKEEVTCPICLELLTQPLSLDCGHSFCQACLTANHKKSMLDKGESSCPVCRISYQPENIRPNRHVANIVEKLREVKLSPEGQKVDHCARHGEKLLLFCQEDGKVICWLCERSQEHRGHHTFLTEEVAREYQVKLQAALEMLRQKQQEAEELEADIREEKASWKTQIQYDKTNVLADFEQLRDILDWEESNELQNLEKEEEDILKSLTNSETEMVQQTQSLRELISDLEHRLQGSVMELLQGVDGVIKRTENVTLKKPETFPKNQRRVFRAPDLKGMLEVFRELTDVRRYWVDVTVAPNNISCAVISEDKRQVSSPKPQIIYGARGTRYQTFVNTGILGSQSITSGKHYWEVDVSKKTAWILGVCAGFQPDAMCNIEKNENYQPKYGYWVIGLEEGVKCSAFQDSSFHTPSVPFIVPLSVIICPDRVGVFLDYEACTVSFFNITNHGFLIYKFSHCSFSQPVFPYLNPRKCGVPMTLCSPSS [human TRIM5α, 4-codon deletion at 342]” is 1.09 ± 0.36; for “MASGILVNVKEEVTCPICLELLTQPLSLDCGHSFCQACLTANHKKSMLDKGESSCPVCRISYQPENIRPNRHVANIVEKLREVKLSPEGQKVDHCARHGEKLLLFCQEDGKVICWLCERSQEHRGHHTFLTEEVAREYQVKLQAALEMLRQKQQEAEELEADIREEKASWKTQIQYDKTNVLADFEQLRDILDWEESNELQNLEKEEEDILKSLTNSETEMVQQTQSLRELISDLEHRLQGSVMELLQGVDGVIKRTENVTLKKPETFPKNQRRVFRAPDLKGMLEVFRELTDVRRYWVDVTVAPNNISCAVISEDKRQVSSPKPQIIYGARGTRYQTFVNTRYQTFVNFNYCTGILGSQSITSGKHYWEVDVSKKTAWILGVCAGFQPDAMCNIEKNENYQPKYGYWVIGLEEGVKCSAFQDSSFHTPSVPFIVPLSVIICPDRVGVFLDYEACTVSFFNITNHGFLIYKFSHCSFSQPVFPYLNPRKCGVPMTLCSPSS [human TRIM5α, 8-codon duplication at 334]” it is 0.217 ± 0.08.
The figure for “MASGILVNVKEEVTCPICLELLTQPLSLDCGHSFCQACLTANHKKSMLDKGESSCPVCRISYQPENIRPNRHVANIVEKLREVKLSPEGQKVDHCARHGEKLLLFCQEDGKVICWLCERSQEHRGHHTFLTEEVAREYQVKLQAALEMLRQKQQEAEELEADIREEKASWKTQIQYDKTNVLADFEQLRDILDWEESNELQNLEKEEEDILKSLTNSETEMVQQTQSLRELISDLEHRLQGSVMELLQGVDGVIKRTENVTLKKPETFPKNQRRVFRAPDLKGMLEVFRELTDVRRYWVDVTVAPNNISCAVISEDKRQVSSPKPQIIYGARGTRYQTFVNVNFNYCTGILGSQSITSGKHYWEVDVSKKTAWILGVCAGFQPDAMCNIEKNENYQPKYGYWVIGLEEGVKCSAFQDSSFHTPSVPFIVPLSVIICPDRVGVFLDYEACTVSFFNITNHGFLIYKFSHCSFSQPVFPYLNPRKCGVPMTLCSPSS [human TRIM5α, 2-codon duplication at 340]” is 0.357 ± 0.12; for “MASGILVNVKEEVTCPICLELLTQPLSLDCGHSFCQACLTANHKKSMLDKGESSCPVCRISYQPENIRPNRHVANIVEKLREVKLSPEGQKVDHCARHGEKLLLFCQEDGKVICWLCERSQEHRGHHTFLTEEVAREYQVKLQAALEMLRQKQQEAEELEADIREEKASWKTQIQYDKTNVLADFEQLRDILDWEESNELQNLEKEEEDILKSLTNSETEMVQQTQSLRELISDLEHRLQGSVMELLQGVDGVIKRTENVTLKKPETFPKNQRRVFRAPDLKGMLEVFRELTDVRRYWVDVTVAPNNISCAVISEDKRQVSSPKPQIIYGARGTRYQTFVNYCTGILGSQSITSGKHYWEVDVSKKTAWILGVCAGFQPDAMCNIEKNENYQPKYGYWVIGLEEGVKCSAFQDSSFHTPSVPFIVPLSVIICPDRVGVFLDYEACTVSFFNITNHGFLIYKFSHCSFSQPVFPYLNPRKCGVPMTLCSPSS [human TRIM5α, 2-codon deletion at 341]” it is 0.313 ± 0.12.
Take “MASGILVNVKEEVTCPICLELLTQPLSLDCGHSFCQACLTANHKKSMLDKGESSCPVCRISYQPENIRPNRHVANIVEKLREVKLSPEGQKVDHCARHGEKLLLFCQEDGKVICWLCERSQEHRGHHTFLTEEVAREYQVKLQAALEMLRQKQQEAEELEADIREEKASWKTQIQYDKTNVLADFEQLRDILDWEESNELQNLEKEEEDILKSLTNSETEMVQQTQSLRELISDLEHRLQGSVMELLQGVDGVIKRTENVTLKKPETFPKNQRRVFRAPDLKGMLEVFRELTDVRRYWVDVTVAPNNISCAVISEDKRQVSSPKPQIIYGARGTRYQTFVNYCTGILGSQSITSGKHYWEVDVSKKTAWILGVCAGFQPDAMCNIEKNENYQPKYGYWVIGLEEGVKCSAFQDSSFHTPSVPFIVPLSVIICPDRVGVFLDYEACTVSFFNITNHGFLIYKFSHCSFSQPVFPYLNPRKCGVPMTLCSPSS [human TRIM5α, 2-codon deletion at 342]”: the enrichment worked out at 0.313 ± 0.12.
